# Assay results reported in article PMC4336329 (PLoS ONE, 2015).
# In all, about 310,000 compounds went through this assay and about 14,000 (4.5%) showed an effect of 50% or more. The effect is printed as a negative number. This is one part of the list.
# Biological target: human ether-à-go-go-related gene (hERG) potassium channel (human, UniProt Q12809)
# Assay: primary screen, population patch clamp on CHO cells stably expressing hERG
# 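Further: peak tail current of the secondary pulse compared with the same well before compound.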
# human ether-à-go-go-related gene (hERG) potassium channel, sequence (Q12809 whole entry, looked up): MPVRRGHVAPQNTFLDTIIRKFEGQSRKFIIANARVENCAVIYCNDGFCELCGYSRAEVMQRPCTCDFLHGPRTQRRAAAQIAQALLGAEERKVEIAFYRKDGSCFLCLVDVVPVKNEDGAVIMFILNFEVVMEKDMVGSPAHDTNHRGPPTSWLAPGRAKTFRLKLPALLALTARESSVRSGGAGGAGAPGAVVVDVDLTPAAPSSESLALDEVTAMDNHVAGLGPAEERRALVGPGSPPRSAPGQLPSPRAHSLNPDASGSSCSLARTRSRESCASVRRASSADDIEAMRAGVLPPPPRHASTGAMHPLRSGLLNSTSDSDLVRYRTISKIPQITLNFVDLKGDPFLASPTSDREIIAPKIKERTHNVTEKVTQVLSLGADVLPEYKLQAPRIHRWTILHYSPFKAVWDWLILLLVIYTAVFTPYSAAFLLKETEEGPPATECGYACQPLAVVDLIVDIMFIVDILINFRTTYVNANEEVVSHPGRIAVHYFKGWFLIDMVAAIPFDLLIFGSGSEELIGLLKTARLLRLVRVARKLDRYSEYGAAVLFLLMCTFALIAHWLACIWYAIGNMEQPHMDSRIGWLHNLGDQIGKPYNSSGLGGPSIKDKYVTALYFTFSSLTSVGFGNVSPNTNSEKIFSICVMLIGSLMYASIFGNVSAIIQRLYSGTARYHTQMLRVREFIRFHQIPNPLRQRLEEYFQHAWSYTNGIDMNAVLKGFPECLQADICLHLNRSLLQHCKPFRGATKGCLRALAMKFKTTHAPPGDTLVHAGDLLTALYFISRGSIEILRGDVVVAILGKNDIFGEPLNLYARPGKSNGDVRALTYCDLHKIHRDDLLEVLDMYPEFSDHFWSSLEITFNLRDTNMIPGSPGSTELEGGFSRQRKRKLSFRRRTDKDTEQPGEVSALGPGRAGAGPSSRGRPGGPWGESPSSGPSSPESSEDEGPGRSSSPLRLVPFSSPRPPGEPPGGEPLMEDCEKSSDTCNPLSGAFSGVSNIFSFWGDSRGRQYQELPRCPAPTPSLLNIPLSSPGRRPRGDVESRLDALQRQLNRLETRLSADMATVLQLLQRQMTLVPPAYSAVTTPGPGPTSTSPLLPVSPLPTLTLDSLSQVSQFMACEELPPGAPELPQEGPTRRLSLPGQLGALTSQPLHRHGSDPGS
row,SMILES,"hERG current change (%, negative = inhibition) at 10uM [%]"
1,CNS(=O)(=O)c1cccc(C(=O)NNC(=O)c2ccc(COc3ccccc3)cc2)c1,6.84
2,O=C(COC(=O)c1ccccc1Oc1ccccc1)NCc1ccco1,-19.1
3,O=C(c1ccc(F)cc1)N1CCN(C2=NS(=O)(=O)c3ccccc32)CC1,-15.8
4,CCOc1ccc(C(C)(O)CN2CCOCC2)cc1 (centres unmarked),14.8
5,O=C(NCCc1ccccc1)c1ccc2c(c1)S(=O)(=O)c1cc(Cl)ccc1C2=O,18.9
6,COc1ccc(C(=O)Cn2ccsc2=NC(C)=O)cc1,9.46
7,COc1ccc(CC(CC(=O)O)C(=O)Nc2ccc(Cl)c(Cl)c2)cc1 (centres unmarked),19.6
8,CS(=O)(=O)N1CCN(C(=O)COc2ccccc2)CC1,56.2
9,N#C/C(=C\c1ccccc1)C(=O)NC(=O)Oc1ccccc1,17.2
10,COc1ccc(-c2nn3c(-c4ccccc4)nnc3s2)cc1OC,-9.45
11,O=C(C1CCC(=O)N(C2CC2)C1)N1CCN(c2ccc(Cl)cc2)CC1 (centres unmarked),-38.1
12,CN(C)CCCN(C(=O)c1ccc(S(=O)(=O)N2CCc3ccccc3C2)cc1)c1nc2c(F)cc(F)cc2s1.Cl,-15.2
13,O=C(CSc1n[nH]c(=O)n1C1CC1)Nc1cc(Cl)ccc1Oc1ccccc1,-35.1
14,CCC(CC)C(=O)NCc1ccc(OC)cc1,2.37
15,Cc1ccccc1OCCOc1ccc([N+](=O)[O-])cc1/C=N/n1cnnc1,-28.3
16,COc1ccc([C@@H]2CC=C(C(=O)O)[C@H](c3ccc(Cl)cc3)N2S(=O)(=O)c2ccc(C)cc2)cc1OC,1.48
17,COCCCNC(=S)Nc1ccc2c(c1)OCCO2,-30.6
18,COC(=O)c1ccccc1NC(=O)CN1CCC(NC(=O)c2ccccc2C)CC1,-39.9
19,COc1ccccc1C(=O)Nc1sc(C(=O)N2CCCC2)c(C)c1C#N,12
20,CCOC(=O)N1CCN(c2nc(C)c3c(n2)CC(C)CC3=O)CC1 (centres unmarked),-1.43
21,COc1ccc(C)cc1S(=O)(=O)N(C)CC(=O)N1CCN(C)CC1,2.65
22,CN(Cc1cnn(C)c1)Cc1nc(-c2ccc(Cl)cc2)no1,-4.26

row,SMILES,"hERG current change (%, negative = inhibition) at 10uM [%]"
1,Cn1c(=O)[nH]c(=O)c2c1nc(Sc1ccccc1)n2CCc1ccccc1,5.97
2,CC(=O)Nc1ccc(/C=N/NC(=O)CCN2CCN(c3ccccc3)CC2)cc1,-2.3
3,C=CC1CN2CCC1CC2C(OC(C)=O)c1ccnc2ccc(OC)cc12 (centres unmarked),-32.9
4,CC(C)(C)C(=O)CN1C(=O)NC(c2ccccc2)(c2ccccc2)C1=O,0.339
5,O=C(c1ccc(Cn2c(=S)[nH]c3ccc(Br)cc3c2=O)cc1)N1CCN(C2CCCCC2)CC1,15.1
6,NCCNc1ccc([N+](=O)[O-])c(NC2CC2)c1,-2.59
7,Cc1cc(NC(=O)c2cc(C3CC3)on2)no1,24.7
8,COc1ccc(C(C(=O)NC2CCCCC2)N(C(=O)c2csnn2)C2CC2)cc1 (centres unmarked),-21.4
9,COc1cc(-n2c(=O)c3ccccc3n(CC(=O)c3ccccc3)c2=O)cc(OC)c1OC,9.1
10,COc1ccc(COC(=O)C2CCN(S(=O)(=O)c3ccc(C)cc3)CC2)cc1,-7.61
11,CCOC(=O)C1=C(C)NC(=O)NC1c1ccc(Br)o1 (centres unmarked),7.02
12,CCN1C(=O)C2C(c3cccc(F)c3)NC(C)(C(=O)OC)C2C1=O (centres unmarked),5.3
13,CC(c1ccccc1)C1CC(=O)N(c2cc(Cl)ccn2)C1=O (centres unmarked),-16
14,COc1ccccc1N1CCN(CC(=O)Nc2nc(C)c(C(=O)N(C)C)s2)CC1,6.73
15,O=C(c1cc(Cl)ccc1Cl)N1CCN(Cc2ccccc2)CC1,5.54
16,O=C(COCc1nc2ccccc2c(=O)[nH]1)NCC1CCCCC1,-39.3
17,Cn1nnnc1Sc1ncnc2scc(-c3ccc(C(F)(F)F)cc3)c12,-3.45
18,Nc1ccc(-c2nc3ccccc3[nH]2)cc1,-5.4
19,C=CCNC(=O)/C(C#N)=C/c1c(N(Cc2ccccc2)Cc2ccccc2)nc2ccccn2c1=O,-44.2
20,CC(NC(=S)N1CCN(c2ccccc2)CC1)c1ccccc1 (centres unmarked),5.05
21,COc1ccc(C2=NN(C(=O)CCC(=O)O)C(c3ccc(OC)cc3)C2)cc1 (centres unmarked),-0.757
22,O=C(Cc1cccc(C(F)(F)F)c1)OCC(=O)N1CCN(S(=O)(=O)c2ccc(Cl)cc2)CC1,-6.07

row,SMILES,"hERG current change (%, negative = inhibition) at 10uM [%]"
1,Cc1cccc(Cn2c(SCC(=O)Nc3ccccc3)nc3c2c(=O)[nH]c(=O)n3C)c1,-30.2
2,CCOC(=O)C(=Cc1cn(C)c2ccc(S(=O)(=O)N(C)C)cc12)C(=O)OCC,8.8
3,Cc1ccc(S(=O)(=O)Nc2c(O)ccc3ccccc23)cc1,-0.72
4,O=C(N/N=C/c1c(Nc2cccc(C(F)(F)F)c2)nc2ccccn2c1=O)c1ccccc1[N+](=O)[O-],8.72
5,C=CCOc1c(Br)cc(CNn2c(C)n[nH]c2=S)cc1OCC,12.1
6,CCOc1ccc(CCNC(=O)CCc2nc3ccccc3[nH]2)cc1OCC,-1.68
7,CCOc1ccccc1C1CC(=O)Nc2cc(C)c(C)cc21 (centres unmarked),-7.74
8,CCCNC(=S)NCc1ccc(Cl)cc1,-1.64
9,COCCn1c(=O)[nH]c2cc(C(=O)Nc3nnc(C)s3)ccc21,6.11
10,Cc1cc2sc(NC(=O)c3ccco3)nc2cc1Cl,19.6
11,Cc1cc(OC(=O)c2cc(Cl)nc3ccccc23)ccc1Cl,10.7
12,Br.COc1ccc(-c2nc3n(c2Br)CCC3)cc1,-2.71
13,Cc1ccc(Cl)cc1NC(=S)N(Cc1cccnc1)Cc1ccccc1Cl,2.23
14,O=C1C(NS(=O)(=O)c2cccs2)=C(N2CCOCC2)C(=O)c2ccccc21,-40.8
15,Cc1ccc(S(=O)(=O)N(CC(=O)N(C(C)C)C(C)C)C(=O)N2CCN(C)CC2)cc1,4.66
16,COc1ccc(CCNC(=O)CCc2cc(OC)c(OC)c(OC)c2)cc1OC,5.3
17,COc1ccc(NC(=O)c2cc(N3C(=O)C4C5CCC(C5)C4C3=O)ccc2Cl)c(OC)c1 (centres unmarked),7.7
18,O=C(COC(=O)c1cccc([N+](=O)[O-])c1)c1ccc(OCc2ccccc2)cc1,27.6
19,C=CCOc1ccc(C2C(C(=O)c3ccc(C)o3)=C(O)C(=O)N2Cc2cccnc2)cc1 (centres unmarked),15.9
20,Cc1cccc(NC(=O)c2ccc3c(c2)C(=O)N(c2ccccn2)C3=O)c1C,12.9
21,S=C(NCC1CCCO1)Nc1ccccc1Cl (centres unmarked),5.02
22,C[C@@H]1CC=C[C@H]2[C@H]1C(=O)N(Cc1ccccc1)[C@H]2c1ccc(-c2ccc(N(C)C)cc2)cc1F,4.02

row,SMILES,"hERG current change (%, negative = inhibition) at 10uM [%]"
1,CCCCNc1c(N)n(CCCC)c(=O)[nH]c1=O,-19.2
2,Cc1cc(C)c2c(=O)[nH]c(SCC(=O)c3ccc(C)c(C)c3)nc2n1,6.59
3,COc1ccc(/C=C/C(=O)Nc2cccc(S(=O)(=O)NC3=NCCCCC3)c2)cc1,-43
4,CCN(CC)CCCN1C=C2C(=O)C(C)(OC(=O)CCC(=O)OC)C(=O)C(Br)=C2C=C1c1ccc(OC)cc1 (centres unmarked),-10.6
5,CC(C)n1c(SCC(=O)Nc2nncs2)nnc1C1CC1,-2.18
6,O=C(c1cccc(N2CCCC2=O)c1)N1CCN(c2cccc(Cl)c2)CC1,-25.6
7,COc1ccc(C)cc1Nc1n[n+](-c2ccccc2)c(-c2ccc(NC(C)=O)cc2)s1.[Cl-],12.8
8,COc1ccc(/C=C/C(=O)O)cc1S(=O)(=O)NCC1CCCO1 (centres unmarked),14.1
9,CCCc1nnc(SCc2ccc(OCC)cc2)n1N,10.7
10,COc1ccc(Cl)cc1S(=O)(=O)N(C)CC(=O)NCCCn1ccnc1,10.2
11,Cc1ccc(S(=O)(=O)NC(C)(C)CN2CCc3ccccc3C2)cc1,-34.1
12,Cc1nnc(SCCn2c(N(C)Cc3ccccc3)nc3c2c(=O)n(C)c(=O)n3C)s1,-26.6
13,O=C(C1CCN(c2ccc(N3CCOCC3)nn2)CC1)N1CCN(c2ccc(F)cc2)CC1,-47.4
14,Cc1nc2ccccc2nc1OCc1cccc([N+](=O)[O-])c1,11.7
15,COc1ccc(OC)c(NC(=O)CN2CCC(C(=O)c3ccc(C)cc3)CC2)c1,-17.7
16,O=C(Nc1ccc(Cl)cn1)c1ccc2ccccc2n1,12
17,Cn1c(-c2cc(Br)ccc2O)n[nH]c1=S,16.2
18,COc1ccc(C(=O)NCC(c2ccco2)N2CCOCC2)cc1OC (centres unmarked),24.9
19,CN(C(=O)COC(=O)CSc1ccc(C(N)=O)cc1[N+](=O)[O-])C1CCS(=O)(=O)C1 (centres unmarked),-11.4
20,CCn1cc(S(=O)(=O)N2CCCC2)cn1,8.1
